Source: the supplement of paper PMC10369915
The other results are listed elsewhere or left out. No stated cut-off is given here; in the data, active = 3.2 or more and inactive = the rest. Only a few entries rise above the background.

Experiments:
Assay in all cases: enrichment score (SH2-bound / input frequency) (ratio); bacterial display of known human phosphotyrosine sites (pTyr-Var adds point mutants) read by sequencing; higher = stronger binding; tyrosines were phosphorylated by kinases first
Settings in all cases: peptide library: pTyr-Var
SHP2 C-SH2 domain E139D = biological target: SHP2 C-SH2 domain E139D
[1] = biological target: SHP2 C-SH2 domain wild-type
SHP2 N-SH2 domain L43F = biological target: SHP2 N-SH2 domain L43F
SHP2 N-SH2 domain T42A = biological target: SHP2 N-SH2 domain T42A
SHP2 N-SH2 domain T52S = biological target: SHP2 N-SH2 domain T52S
[2] = biological target: SHP2 N-SH2 domain wild-type

Measured: enrichment score
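Further: displayed peptides selected on beads carrying the immobilized SH2 domain, with library peptides lacking any tyrosine serving as negative controls.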

LHSEAYLKYIE [PBRM1_Y1610]
inactive: SHP2 C-SH2 domain E139D 0.925 | [1] 0.825 | SHP2 N-SH2 domain L43F 0.965 | SHP2 N-SH2 domain T42A 0.73 | SHP2 N-SH2 domain T52S 0.764 | [2] 0.621

RDVEQYVNNVN [PCDH19_Y1097_L1094V]
inactive: SHP2 C-SH2 domain E139D 0.75 | [1] 0.456 | SHP2 N-SH2 domain L43F 0.73 | SHP2 N-SH2 domain T42A 0.491 | SHP2 N-SH2 domain T52S 0.509 | [2] 0.765

ILGTYYETGSI [PAX2_Y73_R71T]
inactive: SHP2 C-SH2 domain E139D 1.33 | [1] 1.13 | SHP2 N-SH2 domain L43F 0.81 | SHP2 N-SH2 domain T42A 1.29 | SHP2 N-SH2 domain T52S 1.27 | [2] 1.18

VDDEIYFFRKP [PBRM1_Y1289_YF]
inactive: SHP2 C-SH2 domain E139D 0.63 | [1] 0.719 | SHP2 N-SH2 domain L43F 0.658 | SHP2 N-SH2 domain T42A 0.913 | SHP2 N-SH2 domain T52S 0.861 | [2] 1.13

VECQVYAEDPF [PCCA_Y401_R399Q_YF]
inactive: SHP2 C-SH2 domain E139D 1.11 | [1] 1.02 | SHP2 N-SH2 domain L43F 0.87 | SHP2 N-SH2 domain T42A 0.683 | SHP2 N-SH2 domain T52S 0.752 | [2] 1.43

LHSEAYLKYNE [PBRM1_Y1610_I1614N]
inactive: SHP2 C-SH2 domain E139D 1.06 | [1] 0.687 | SHP2 N-SH2 domain L43F 0.797 | SHP2 N-SH2 domain T42A 0.683 | SHP2 N-SH2 domain T52S 0.648 | [2] 0.629

QHVPDYRQNVY [PCDHGA1_Y890]
inactive: SHP2 C-SH2 domain E139D 0.716 | [1] 0.692 | SHP2 N-SH2 domain L43F 0.732 | SHP2 N-SH2 domain T42A 0.615 | SHP2 N-SH2 domain T52S 0.709 | [2] 0.811

SAGSSYSISSI [PAX5_Y179_G183S]
inactive: SHP2 C-SH2 domain E139D 0.843 | [1] 0.855 | SHP2 N-SH2 domain L43F 0.776 | SHP2 N-SH2 domain T42A 0.704 | SHP2 N-SH2 domain T52S 0.822 | [2] 0.927

SAGSSYSISVI [PAX5_Y179_G183V]
inactive: SHP2 C-SH2 domain E139D 0.701 | [1] 0.617 | SHP2 N-SH2 domain L43F 0.716 | SHP2 N-SH2 domain T42A 0.601 | SHP2 N-SH2 domain T52S 0.565 | [2] 0.504

ILGRYYERGSI [PAX5_Y73_T75R]
inactive: SHP2 C-SH2 domain E139D 1.36 | [1] 1.19 | SHP2 N-SH2 domain L43F 1.27 | SHP2 N-SH2 domain T42A 1.09 | SHP2 N-SH2 domain T52S 1.29 | [2] 1.42

VDDQIYYFRKP [PBRM1_Y1289_E1287Q]
inactive: SHP2 C-SH2 domain E139D 1.01 | [1] 0.932 | SHP2 N-SH2 domain L43F 1.06 | SHP2 N-SH2 domain T42A 0.791 | SHP2 N-SH2 domain T52S 0.927 | [2] 0.959

RDLEQYVNNVN [PCDH19_Y1097]
inactive: SHP2 C-SH2 domain E139D 0.732 | [1] 0.651 | SHP2 N-SH2 domain L43F 0.804 | SHP2 N-SH2 domain T42A 0.591 | SHP2 N-SH2 domain T52S 0.795 | [2] 0.748

LHSEAYLKFNE [PBRM1_Y1610_I1614N_YF]
inactive: SHP2 C-SH2 domain E139D 1.42 | [1] 1.28 | SHP2 N-SH2 domain L43F 0.937 | SHP2 N-SH2 domain T42A 1.05 | SHP2 N-SH2 domain T52S 0.874 | [2] 0.871

PGPQSYPIVTG [PAX5_Y299]
inactive: SHP2 C-SH2 domain E139D 0.593 | [1] 0.58 | SHP2 N-SH2 domain L43F 0.768 | SHP2 N-SH2 domain T42A 0.613 | SHP2 N-SH2 domain T52S 0.528 | [2] 0.739

VERRVYAEDPF [PCCA_Y401_C398R_YF]
inactive: SHP2 C-SH2 domain E139D 0.634 | [1] 0.411 | SHP2 N-SH2 domain L43F 0.778 | SHP2 N-SH2 domain T42A 0.505 | SHP2 N-SH2 domain T52S 0.57 | [2] 0.701

TVHPGYGFLSE [PCCA_Y143_A138T]
inactive: SHP2 C-SH2 domain E139D 0.747 | [1] 0.602 | SHP2 N-SH2 domain L43F 0.664 | SHP2 N-SH2 domain T42A 0.624 | SHP2 N-SH2 domain T52S 0.693 | [2] 0.583

VCHELYNTIRD [PBRM1_Y54]
inactive: SHP2 C-SH2 domain E139D 0.962 | [1] 1.12 | SHP2 N-SH2 domain L43F 0.974 | SHP2 N-SH2 domain T42A 0.953 | SHP2 N-SH2 domain T52S 0.818 | [2] 1.03

ILGTFYETGSI [PAX2_Y73_R71T_YF]
inactive: SHP2 C-SH2 domain E139D 1.02 | [1] 0.88 | SHP2 N-SH2 domain L43F 0.866 | SHP2 N-SH2 domain T42A 0.69 | SHP2 N-SH2 domain T52S 0.877 | [2] 0.906

VDDQIYFFRKP [PBRM1_Y1289_E1287Q_YF]
inactive: SHP2 C-SH2 domain E139D 0.741 | [1] 0.665 | SHP2 N-SH2 domain L43F 0.661 | SHP2 N-SH2 domain T42A 0.672 | SHP2 N-SH2 domain T52S 0.652 | [2] 0.711
